# From article PMC4336329 (PLoS ONE, 2015)
# Out of some 310,000 compounds screened, about 14,000 (4.5%) showed an effect of 50% or more. Effects have a minus sign here. Some of the results follow.
# Target: human ether-à-go-go-related gene (hERG) potassium channel (human, UniProt Q12809)
# Experiment: primary screen, population patch clamp on CHO cells stably expressing hERG
# 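Note: peak tail current of the secondary pulse compared with the same well before compound.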
# Sequence of human ether-à-go-go-related gene (hERG) potassium channel (Q12809 whole entry, looked up): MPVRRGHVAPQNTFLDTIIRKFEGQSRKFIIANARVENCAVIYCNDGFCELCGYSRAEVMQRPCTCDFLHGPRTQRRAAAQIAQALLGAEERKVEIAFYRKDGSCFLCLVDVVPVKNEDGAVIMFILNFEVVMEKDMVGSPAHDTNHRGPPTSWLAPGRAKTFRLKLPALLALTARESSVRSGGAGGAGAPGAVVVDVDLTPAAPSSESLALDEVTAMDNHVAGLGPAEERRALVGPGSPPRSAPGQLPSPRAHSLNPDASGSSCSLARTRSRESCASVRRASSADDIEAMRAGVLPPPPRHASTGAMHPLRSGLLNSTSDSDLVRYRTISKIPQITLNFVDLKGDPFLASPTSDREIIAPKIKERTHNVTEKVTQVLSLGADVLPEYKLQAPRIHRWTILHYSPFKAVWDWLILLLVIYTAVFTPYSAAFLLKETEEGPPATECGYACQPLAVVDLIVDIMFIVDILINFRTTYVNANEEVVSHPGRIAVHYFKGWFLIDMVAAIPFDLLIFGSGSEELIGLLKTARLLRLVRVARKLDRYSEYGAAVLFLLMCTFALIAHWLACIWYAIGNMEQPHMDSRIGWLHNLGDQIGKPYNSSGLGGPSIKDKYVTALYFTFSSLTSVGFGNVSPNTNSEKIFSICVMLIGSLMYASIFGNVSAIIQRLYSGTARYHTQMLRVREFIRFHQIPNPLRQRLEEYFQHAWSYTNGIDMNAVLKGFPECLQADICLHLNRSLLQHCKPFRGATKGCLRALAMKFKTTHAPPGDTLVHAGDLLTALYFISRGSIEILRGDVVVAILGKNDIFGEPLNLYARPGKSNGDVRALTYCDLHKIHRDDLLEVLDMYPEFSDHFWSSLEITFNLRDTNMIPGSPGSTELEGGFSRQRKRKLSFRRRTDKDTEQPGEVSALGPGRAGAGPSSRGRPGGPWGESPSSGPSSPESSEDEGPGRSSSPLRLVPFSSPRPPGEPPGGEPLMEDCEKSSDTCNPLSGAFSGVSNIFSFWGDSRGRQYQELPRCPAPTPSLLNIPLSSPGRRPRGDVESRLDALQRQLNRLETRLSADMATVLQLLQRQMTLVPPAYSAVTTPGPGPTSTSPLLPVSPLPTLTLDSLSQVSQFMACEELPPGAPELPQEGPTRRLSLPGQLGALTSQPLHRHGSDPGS
row,SMILES,"hERG current change (%, negative = inhibition) at 10uM"
1,O=C(O)CCc1ccc(-c2cccs2)n1NC(=O)c1cccs1,22.3%
2,CCCCOC(=O)C1[C@H]2C(=O)N(Cc3cccs3)C[C@]23C=C[C@H]1O3 (some centres unmarked),-9.35%
3,O=c1cc(-c2ccccc2)c2ccccc2[nH]1,2.17%
4,CCOC(=O)c1c(S(=O)(=O)Nc2ccc(C)cn2)c(C)n(C)c1C,19.6%
5,COc1ccc2nc(NC(=O)C3CCN(C(=O)c4ccco4)CC3)sc2c1,-6.31%
6,CN(c1ccccc1)S(=O)(=O)c1ccc(Cl)c(C(=O)NCC(c2ccco2)N2CCCC2)c1 (centres unmarked),-50.9%
7,CC(C)OCCCn1c(=S)[nH]c2cc3c(cc2c1=O)OCO3,18.9%
8,O=C(Cc1ccccc1)N[C@@H](Cc1ccccc1)C(=O)O,7.29%
9,COc1ccc(/C=C/c2nc(C#N)c(NCCN(C)C)o2)cc1OC,-6.02%
10,CCc1ccc(OC(C)C(=O)N(Cc2ccco2)C2CCS(=O)(=O)C2)cc1 (centres unmarked),-17.5%
11,Cc1cc(OCc2cc(C(=O)N(C)Cc3ccccn3)no2)cc(C)c1Cl,-21.8%
12,O=C(N/N=C/c1ccc2nccnc2c1)c1ccc(Br)cc1,10.7%
13,O=Cc1cn(-c2ccccc2)nc1-c1ccncc1,-33%
14,CCn1cc(C(=O)N[C@@H](CCSC)C(=O)NCCCN2CCOCC2)c(=O)c2cc3c(cc21)OCO3,36.4%
15,C=CCn1c(SCC(N)=O)nnc1-c1cc2c(s1)CCC(CC)C2 (centres unmarked),-0.879%
16,CCn1nc(C(=O)Nc2ccc(C)c(C)c2)c(Cl)c1Cl,7.65%
17,CN1CCN(c2c(F)cc3c(=O)c(C(=O)O)cn4c3c2SCC4)CC1,-5.77%
18,CC(NC(=O)COc1ccc(Oc2ccccc2)cc1)C(=O)O (centres unmarked),-9.88%
19,CCOC(=O)c1sc2nc(CC(=O)OC)nc(NCc3ccc(Cl)cc3)c2c1C,-7.35%

row,SMILES,"hERG current change (%, negative = inhibition) at 10uM"
1,Cc1ccc(OCc2ccc(C(=O)NCC3CCCO3)cc2)cc1C (centres unmarked),-8.8%
2,CCCC(=O)NCc1cc(-c2nn(C)c(=O)c3ccccc23)ccc1C,5.42%
3,CCOC(=O)c1c(S(=O)(=O)NCC(=O)Nc2ccccc2F)c(C)n(C)c1C,21.3%
4,O=c1[nH]c(CSc2nnnn2-c2ccccc2)nc2ccccc12,9.17%
5,Cc1noc(C)c1COc1ccc(C(=O)N2CC(C)CC(C)C2)cc1 (centres unmarked),-20.7%
6,Cc1ccccc1Nc1nnc(SCC(=O)NC2CCCc3ccccc32)s1 (centres unmarked),-21.3%
7,COCC(C)NCC(=O)NC(C)CCc1ccccc1.O=C(O)C(=O)O (centres unmarked),-17.1%
8,Cc1ccccc1CS(=O)(=O)c1nnc([C@H](CC(C)C)NC(=O)OC(C)(C)C)o1,-14.6%
9,CCN(CCO)c1nc(N2CCCCC2)c2cnn(C)c2n1,3.12%
10,CSc1ccc(CN2CCCC(CNC(=O)c3ccc(F)cc3)C2)cc1 (centres unmarked),-70.8%
11,COc1ccc(NC(=O)c2cccnc2)cc1,-11.1%
12,O=C(OCC(=O)N1CCN(C(=O)c2ccco2)CC1)c1cc(-c2ccc(F)cc2)nc2ccccc12,-59.4%
13,CC(=O)N1CCc2cc(S(=O)(=O)NC(CC(C)C)C(=O)Nc3cc(C(=O)O)ccc3C)ccc21 (centres unmarked),8.35%
14,Cc1onc(-c2c(F)cccc2Cl)c1C(=O)N1CCCc2ccccc21,-21.5%
15,CCOC(=O)Nc1ccc2c(c1)nc(CN1CCCCC1)n2C,-7.84%
16,N/C(=N\OC(=O)N1CCOCC1)c1ccccc1,0.112%
17,CC(=O)Nc1cc(C(=O)N2CCC3(CC2)OCCO3)ccc1Sc1ccc(F)cc1,2.37%
18,COC(=O)C(CCSC)NC(=O)C12CC3CC(CC(C3)C1)C2 (centres unmarked),7.17%
19,COc1ccccc1NS(=O)(=O)c1ccc(C)c(NS(=O)(=O)c2cc(C(=O)O)cc(C)c2C)c1,24.2%

row,SMILES,"hERG current change (%, negative = inhibition) at 10uM"
1,COCC(C)NC(=O)CSc1nc(-c2ccccc2)c(-c2ccccc2)o1 (centres unmarked),-35.9%
2,Cc1ccc2nc(CCc3ccc(N)cc3)[nH]c2c1.Cl,8.19%
3,CCn1c(SCC(=O)Nc2nc(C)cs2)nnc1C(C)NC(=O)c1ccccc1 (centres unmarked),7.9%
4,Cc1ccc2c(CN3CCOCC3)cc(=O)oc2c1C,0.23%
5,O=C(/C=C/c1c(F)cccc1Cl)NCc1ccc2c(c1)OCO2,0.546%
6,CC(=O)OC(C(=O)NCCN1CCOCC1)c1c(F)cccc1F (centres unmarked),-5.91%
7,COc1ccc(-c2nnc3ccc(SC(C(C)=O)C(C)=O)nn23)cc1OC,-14.8%
8,O=C1CS/C(=N/N=C\c2ccn[nH]2)N1,13.6%
9,O=C1CCCN1CCCNc1ncnc2c1[nH]c1ccc(Cl)cc12,-29.4%
10,CCOc1ncccc1C(=O)OCC(=O)Nc1cc(S(=O)(=O)N(CC)CC)ccc1C,-42.8%
11,COc1cc(CNCCO)cc(Br)c1OCc1ccccc1Cl.Cl,-3.45%
12,O=C(O)CCC(=O)N1N=C(c2c(-c3ccccc3)c3cc(Cl)ccc3[nH]c2=O)CC1c1ccco1 (centres unmarked),0.316%
13,CCOc1ccccc1C(=O)NC(C(=O)N(C)Cc1ccc2c(c1)OCO2)C(C)C (centres unmarked),-34.8%
14,O=C(CC1COc2ccccc2O1)NCCc1ccccc1 (centres unmarked),-12.6%
15,Cc1cccc(N2CCN(CC(O)COc3ccccc3Cl)CC2)c1 (centres unmarked),-56%
16,CCc1nnc(SCC(=O)Nc2ccc(N3CCOCC3)cc2)o1,-1.88%
17,CCn1nnc(-c2ccccc2NC(=O)c2cccc(-n3cnnn3)c2)n1,-28.8%
18,FC(F)(F)c1ccc2c(c1)n(Cc1ccccc1)c1[n+]2CCCCC1.[Cl-],-24%
